Laboratory results published in PubChem BioAssay AID686979 (National Center for Advancing Translational Sciences (NCATS), 2013).
The campaign covered roughly 420,000 compounds. About 50,000 (12%) were called active. The shares of active, inactive and inconclusive entries below differ from those in the screen. Calls follow the shape of the dose curve; as a rule, active = well fitted inhibition curve with a large enough effect; inconclusive = small, poorly fitted or top-dose-only effect; inactive = flat fitted curve, though single readings scatter. Potencies of inconclusive entries are left out as doubtful fits.

assay: qHTS for Inhibitors of human tyrosyl-DNA phosphodiesterase 1 (TDP1): qHTS in cells in presence of CPT; conditions: chicken DT40 Tdp1-/-;hTDP1 cells + 20 nM CPT, ATP luminescence, 48 h; activity change, negative = growth inhibition: at 46.2 µM (top of the series) unless noted; also: nearly all actives have a fitted effect of over 55% in size
How it was run: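 Chicken DT40 Tdp1-/- cells stably complemented with human TDP1 were seeded at 400 cells/well in medium containing 20 nM camptothecin, exposed to pin-transferred compounds, and grown at 37 °C for at least 48 hr. Viability was read as ATP luminescence.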
% is scaled to controls: 0 for no effect and ±100 for the full control effect; potency is read from the fitted curve at half-maximal effect; tags tell the direction and shape of the fitted curve.

| Structure (SMILES) | Potency | activity change, negative = growth inhibition |
| --- | --- | --- |
| C(=C\c1ccnc2ccccc12)/c1ccc(N2CCN(c3ccc(/C=C/c4ccnc5ccccc45)cc3)CC2)cc1 | active: 5.01 µM | – |
| COc1cccc(C(=O)NCC(c2cccs2)N2CCc3ccccc32)c1 (configuration not stated) | active: 13 µM | – |
| O=C(Nc1ccc2c(c1)OCO2)c1cccs1 | inconclusive [inhibitor, partial curve] | – |
| COc1ccc(N2CCN(Cc3nc(N)nc(Nc4ccc(C)c(Cl)c4)n3)CC2)cc1 | active: 9.2 µM | – |
| O=C(NCCN1C(=O)S/C(=C\c2cccnc2)C1=O)c1cc(S(=O)(=O)N2CCOCC2)ccc1F | inconclusive [inhibitor, single point] | – |
| c1ccc(C2CCC(N3CCN(c4ccccc4)CC3)CC2)cc1 (configuration not stated) | inconclusive [inhibitor, single point] | – |
| CC(C)NC(=O)c1cn(C2CCC(NC(=O)C(C)(C)C)CC2)nn1 (configuration not stated) | – | inactive: 13.9% [at 9.04 µM] |
| COc1ccc([C@@H](OC)[C@@]2(Cc3ccc(O)cc3)N=C(N)N(C)C2=O)cc1 | inconclusive [inhibitor, single point] | – |
| O=C(c1ccccc1)N1CCN(C(=O)c2ccccc2Br)CC1 | inactive | – |
| O=C(COc1ccc(F)cc1)N(c1ccccn1)C1CCCCC1 | inconclusive [inhibitor, single point] | – |
| O=C1CN(C(=O)c2cc([N+](=O)[O-])ccc2Cl)C(c2ccc(F)cc2)c2cc(F)ccc2N1 (configuration not stated) | inconclusive [inhibitor, single point] | – |
| CCOP(=O)(OCC)/C(C#N)=C/c1c[nH]c2ccccc12 | inconclusive [inhibitor, single point] | – |
| Cc1ccc(-c2nc(NC(=O)CSc3cc(C)c4ccccc4n3)ns2)cc1 | active: 13 µM | – |
| COC(=O)c1ccc(NC(=O)CC2C(=O)N(c3cccc(OC)c3)C(=O)N2Cc2cccs2)cc1 (configuration not stated) | inconclusive [inhibitor, single point] | – |
| Cc1ccc(-c2csc(NC(=O)CN3CCC(C(N)=O)CC3)n2)cc1 | inconclusive [inhibitor, single point] | – |
| CCOc1ccc(-c2cc(CCCC(=O)Nc3cc(OC)ccc3OC)no2)cc1 | inconclusive [inhibitor, single point] | – |
| C=CCSc1nnc2c(n1)[nH]c1c(C)cccc12 | inconclusive [inhibitor, partial curve] | – |
| CCCNC(=O)c1c[nH]c2ccc(S(=O)(=O)N(C)c3ccc(OCC)cc3)cc2c1=O | inconclusive [inhibitor, single point] | – |
| O=C(O)C1C2CCC(O2)C1C(=O)Nc1cnn(Cc2ccccc2)c1 (configuration not stated) | inactive | – |
| COc1ccccc1CN1CCCC2(CCN(C(=O)c3c(C)noc3C)CC2)C1 | inactive | – |
| Cc1[nH]nc2c1C(c1ccc(-c3ccc(Cl)cc3)o1)C(C#N)=C(N)O2 (configuration not stated) | active: 13 µM | – |
| O=C(O)c1cc(=O)c2ccccc2o1 | inactive | – |
| CCCSc1ncc(Cl)c(C(=O)Nc2ccc(S(=O)(=O)N(C)c3ccccc3)cc2)n1 | inconclusive [inhibitor, single point] | – |
| O=C(CCCN1C(=O)S/C(=C\C=C\c2ccccc2)C1=O)Nc1ccc(O)cc1 | inconclusive [inhibitor, single point] | – |

| Structure (SMILES) | Potency | activity change, negative = growth inhibition |
| --- | --- | --- |
| CN(Cc1nc2ccccc2n1C)S(=O)(=O)c1ccc(F)cc1 | inconclusive [inhibitor, partial curve] | – |
| CCOc1ccc(N2C(=O)CC(SCc3nc4ccccc4[nH]3)C2=O)cc1 (configuration not stated) | active: 16.4 µM | – |
| COCC(=O)N(Cc1cc2cc(C)ccc2[nH]c1=O)c1ccc(C)c(C)c1 | inconclusive [inhibitor, single point] | – |
| COC(=O)c1ccc(C2c3c(-c4ccccc4O)n[nH]c3C(=O)N2Cc2cccnc2)cc1 (configuration not stated) | inconclusive [inhibitor, single point] | – |
| COc1ccc(Cn2c(C(=O)O)c(CNCc3ccccc3F)c3ccc(OC)cc32)cc1 | inconclusive [inhibitor, single point] | – |
| COC(=O)N1c2ccccc2CCc2ccccc21 | active: 20.6 µM | – |
| CC[C@H](C)[C@H]1CNC(=S)N1CC1CCN(CC)CC1 | inactive | – |
| COc1ccc(CN2C(=O)c3cccc4cccc(c34)C2c2nc3ccccc3[nH]2)cc1 (configuration not stated) | inconclusive [inhibitor, single point] | – |
| COc1ccc(/C=C/C(=O)c2ccccc2)cc1COc1ccc(F)cc1 | inconclusive [inhibitor, single point] | – |
| CSc1ncccc1C(=O)OCC(=O)c1[nH]c(C)c(C(C)=O)c1C | active: 18.4 µM | – |
| COc1ccc(C2=NN(C(C#N)c3ccc(OC)c(OC)c3)C(c3ccccc3)C2)cc1 (configuration not stated) | inconclusive [inhibitor, single point] | – |
| Cc1cccn2c(CN(C)C3CCCc4ccccc43)c(C(=O)N3CCOCC3)nc12 (configuration not stated) | inconclusive [inhibitor, single point] | – |
| Cc1c(CCO)c(=O)oc2n[nH]c(-c3ccccc3)c12 | inactive | – |
| CCOc1cc2[nH]c(=S)n(Cc3ccc(C(=O)NCCCOC)cc3)c(=O)c2cc1OCC | inactive | – |
| COc1cccc(C2C(C(=O)Nc3ccc(C)cc3C)=C(C)Nc3c(C(=O)Nc4ccccc4)cnn32)c1 (configuration not stated) | inactive | – |
| CC(/C=C/c1ccc2c(c1)OCO2)=N\NC(=O)c1cccc([N+](=O)[O-])c1 | active: 20.6 µM | – |
| Cc1ccc(NC(=O)c2cccnc2)c([N+](=O)[O-])c1 | active: 18.4 µM | – |
| O=C(Nc1nnc(S(=O)(=O)N2CCCc3ccccc32)s1)c1cccc(Cl)c1 | inconclusive [inhibitor, single point] | – |
| CCc1ccc(NC(=O)CSc2nc(=O)n(Cc3ccccn3)c3c2CCC3)cc1 | inconclusive [inhibitor, partial curve, poor fit] | – |
| CC(C)(C)NC(=O)C(c1ccccc1F)n1c(=O)c(-c2cc3ccccc3[nH]2)nc2ccccc21 (configuration not stated) | inconclusive [inhibitor, single point] | – |
| CCCCC(=O)N(C)c1c(CC)nc2c(OCc3ccc(C#N)cc3)cccn12 | inconclusive [inhibitor, single point] | – |
| O=C(CC(c1ccccc1)c1cc(Cl)ccc1O)NCCCN1CCOCC1 (configuration not stated) | inactive | – |
| COc1ccc(NC(=O)COc2cccc3c2CCN(C)C3=O)c(OC)c1 | active: 13 µM | – |
| Cn1ccnc1SCC(=O)c1c[nH]c2ccccc12 | inactive | – |

| Structure (SMILES) | Potency | activity change, negative = growth inhibition |
| --- | --- | --- |
| COCCn1c(=O)c(C)nc2cnc(N3CCN(C)CC3)nc21 | inactive | – |
| CC1CCCN(C(=O)CSc2c3c(nc4cc(Cl)ccc24)CCCC3)C1 (configuration not stated) | active: 20.6 µM | – |
| O=C(NNc1c(F)c(F)cc(F)c1F)c1cc2ccccc2oc1=O | inactive | – |
| Cc1ccc(Cn2c(=N)c(S(=O)(=O)c3ccc(Br)cc3)cc3c(=O)n4ccccc4nc32)cc1 | inactive | – |
| O=C(CNC1CCN(Cc2ccccc2)CC1)Nc1ccc(S(=O)(=O)N2CCCCC2)cc1 | inconclusive [inhibitor, single point] | – |
| CCOc1ccccc1-c1nc(CN2CCCN(C(=O)c3ccco3)CC2)c(C)o1 | inconclusive [inhibitor, single point] | – |
| O=C(O)c1cccc(C(=O)Nc2cccc(NC(=O)C3CCCO3)c2)c1 (configuration not stated) | inactive | – |
| O=c1cc(CNc2cc(C(F)(F)F)cc(C(F)(F)F)c2)nc2sccn12 | inconclusive [inhibitor, single point] | – |
| COc1cc(C)c2sc3ccccc3c(=O)c2c1NCCN(C)C | active: 6.51 µM | – |
| CN(Cc1cccs1)C(=O)c1ccc(S(=O)(=O)N2CCCCC2)cc1 | inconclusive [inhibitor, single point] | – |
| Cc1cc(-c2ccccc2)nc2cc(C(=O)NCCCn3ccnc3)nn12 | inactive | – |
| COc1cc(/C=C2/SC(=S)N(CC(=O)Nc3cccnc3)C2=O)cc(OC)c1OC | inactive | – |
| O=S(=O)(NCc1ccccn1)c1cc(OCC(F)(F)F)ccc1OCC(F)(F)F | inactive | – |
| Cc1cccc(CNC(=O)C2CCCN(c3nn4c(=O)cc(C)nc4s3)C2)c1 (configuration not stated) | inactive | – |
| O=C(Nc1ccc(S(=O)(=O)NC2=NCCCCC2)cc1)c1ccco1 | inactive | – |
| CCN(CC)c1ccc(N2C(=O)/C(=C\c3cccnc3)SC2=S)cc1 | – | inconclusive: -30% [inhibitor] |
| CCN(C(=O)COC(=O)c1cc(-c2ccccc2)nn1-c1ccccc1)C1CCS(=O)(=O)C1 (configuration not stated) | inactive | – |
| O=C(NNC(=S)Nc1ccc(Br)cc1)c1ccccc1 | inconclusive [inhibitor, single point] | – |
| COc1ccc(NC(=O)c2cc(S(=O)(=O)N3CCOCC3)ccc2OC)cc1 | inactive | – |
| CCOC(=O)[C@@H](N)CS | – | inconclusive: -30.4% [inhibitor] |
| COc1cc(Cl)c(C)cc1NC(=O)C1CCN(c2nc3ccccc3n3cccc23)CC1 | inconclusive [inhibitor, single point] | – |
| Cc1ccc(C)c(NC(=O)N2CCN(C(=O)c3nsc4ccccc34)CC2)c1 | inconclusive [inhibitor, single point] | – |
| COc1ccc(-c2csc3ncn(-c4ccccc4OC)c(=O)c23)cc1OC | inconclusive [inhibitor, single point] | – |
| CC(=O)Nc1ccc(S(=O)(=O)N2CCN(C(=O)CCC3CCCC3)CC2)cc1 | inconclusive [inhibitor, single point] | – |
